Measurements reported in paper PMC12820563.
This is one part of the list. The list includes weakly bound sequences.

Target: T1, MBP-FoxP3dN (UniProt Q99JB6)
T1 sequence: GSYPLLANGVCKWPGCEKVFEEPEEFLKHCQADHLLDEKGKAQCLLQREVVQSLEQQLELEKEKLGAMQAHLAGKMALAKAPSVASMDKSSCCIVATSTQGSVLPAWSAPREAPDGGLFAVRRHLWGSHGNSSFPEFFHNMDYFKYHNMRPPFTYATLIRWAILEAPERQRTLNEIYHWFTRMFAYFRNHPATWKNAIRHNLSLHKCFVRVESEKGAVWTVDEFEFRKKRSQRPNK
Assay: PD-seq (MBP pull-down with sequencing)
Conditions: 20 mM Tris-HCl pH 7.5, 100 mM NaCl, 1.5 mM MgCl2, 0.4 uM protein, 0.1 uM dsDNA library, 30 min, room temperature, amylose pull-down; high values mean tight binding; double strand, one strand shown

| Sequence | binding signal (RPM ratio (pull-down/input)) |
| --- | --- |
| GATGATTGTTCTCCCAGCTGATGAATTAACGCAATCGAGTAAACAAATTTTCCTAATCTTTCTGTTCAAGCGCCATCTAC | 2.75 |
| GATGATTGTTCTCCCAGCTGATGAATTCACCTAGTCGAGTAAACAAATTTTCCTAATCTTTCTGTTCAAGCGCCATCTAC | 0.241 |
| GATGATTGTTCTCCCAGCTGATGAATTGAGGTAATCGAGTAAACAAATTTTCCTAATCTTTCTGTTCAAGCGCCATCTAC | 0.557 |
| GATGATTGTTCTCCCAGCTGATGAATTGGGATATTCGAGTAAACAAATTTTCCTAATCTTTCTGTTCAAGCGCCATCTAC | 0.812 |
| GATGATTGTTCTCCCAGCTGATGAATTGTAGCATTCGAGTAAACAAATTTTCCTAATCTTTCTGTTCAAGCGCCATCTAC | 5.76 |
| GATGATTGTTCTCCCAGCTGATGAATTTGCCTCCTCGAGTAAACAAATTTTCCTAATCTTTCTGTTCAAGCGCCATCTAC | 2.37 |
| GATGATTGTTCTCCCAGCTGATGAATTATTCACCTCGAGTAAACAAATTTTCCTAATCTTTCTGTTCAAGCGCCATCTAC | 0.347 |
| GATGATTGTTCTCCCAGCTGATGAATTGTTCTCATCGAGTAAACAAATTTTCCTAATCTTTCTGTTCAAGCGCCATCTAC | 0.452 |
| GATGATTGTTCTCCCAGCTGATGAATTTGGGCGGTCGAGTAAACAAATTTTCCTAATCTTTCTGTTCAAGCGCCATCTAC | 0.417 |
| GATGATTGTTCTCCCAGCTGATGAATTCATATGTTCGAGTAAACAAATTTTCCTAATCTTTCTGTTCAAGCGCCATCTAC | 1.38 |
| GATGATTGTTCTCCCAGCTGATGAATTGGCACAATCGAGTAAACAAATTTTCCTAATCTTTCTGTTCAAGCGCCATCTAC | 0.528 |
| GATGATTGTTCTCCCAGCTGATGAATTACCCAGATCGAGTAAACAAATTTTCCTAATCTTTCTGTTCAAGCGCCATCTAC | 0.196 |
| GATGATTGTTCTCCCAGCTGATGAATTGTCCGGCTCGAGTAAACAAATTTTCCTAATCTTTCTGTTCAAGCGCCATCTAC | 0.245 |
| GATGATTGTTCTCCCAGCTGATGAATTTTAATCATCGAGTAAACAAATTTTCCTAATCTTTCTGTTCAAGCGCCATCTAC | 0.522 |
| GATGATTGTTCTCCCAGCTGATGAATTCCCGGGATCGAGTAAACAAATTTTCCTAATCTTTCTGTTCAAGCGCCATCTAC | 0.199 |
| GATGATTGTTCTCCCAGCTGATGAATTACCGCTATCGAGTAAACAAATTTTCCTAATCTTTCTGTTCAAGCGCCATCTAC | 0.79 |
| GATGATTGTTCTCCCAGCTGATGAATTCAAAACATCGAGTAAACAAATTTTCCTAATCTTTCTGTTCAAGCGCCATCTAC | 1.67 |
| GATGATTGTTCTCCCAGCTGATGAATTGACGCTTTCGAGTAAACAAATTTTCCTAATCTTTCTGTTCAAGCGCCATCTAC | 1.25 |
| GATGATTGTTCTCCCAGCTGATGAATTACCTGCGTCGAGTAAACAAATTTTCCTAATCTTTCTGTTCAAGCGCCATCTAC | 0.555 |
| GATGATTGTTCTCCCAGCTGATGAATTGCTATTATCGAGTAAACAAATTTTCCTAATCTTTCTGTTCAAGCGCCATCTAC | 1.72 |

| Sequence | binding signal (RPM ratio (pull-down/input)) |
| --- | --- |
| GATGATTGTTCTCCCAGCTGATGAATTTGCGGGATCGAGTAAACAAATTTTCCTAATCTTTCTGTTCAAGCGCCATCTAC | 0.544 |
| GATGATTGTTCTCCCAGCTGATGAATTTCGGTTGTCGAGTAAACAAATTTTCCTAATCTTTCTGTTCAAGCGCCATCTAC | 1.29 |
| GATGATTGTTCTCCCAGCTGATGAATTACCGCATTCGAGTAAACAAATTTTCCTAATCTTTCTGTTCAAGCGCCATCTAC | 5.89 |
| GATGATTGTTCTCCCAGCTGATGAATTCATTGTTTCGAGTAAACAAATTTTCCTAATCTTTCTGTTCAAGCGCCATCTAC | 2.74 |
| GATGATTGTTCTCCCAGCTGATGAATTGATTTAATCGAGTAAACAAATTTTCCTAATCTTTCTGTTCAAGCGCCATCTAC | 0.411 |
| GATGATTGTTCTCCCAGCTGATGAATTTAGTAGCTCGAGTAAACAAATTTTCCTAATCTTTCTGTTCAAGCGCCATCTAC | 1.21 |
| GATGATTGTTCTCCCAGCTGATGAATTATGGGTGTCGAGTAAACAAATTTTCCTAATCTTTCTGTTCAAGCGCCATCTAC | 0.931 |
| GATGATTGTTCTCCCAGCTGATGAATTATCTAAATCGAGTAAACAAATTTTCCTAATCTTTCTGTTCAAGCGCCATCTAC | 0.288 |
| GATGATTGTTCTCCCAGCTGATGAATTGCGAGTTTCGAGTAAACAAATTTTCCTAATCTTTCTGTTCAAGCGCCATCTAC | 1.55 |
| GATGATTGTTCTCCCAGCTGATGAATTAATGTCTTCGAGTAAACAAATTTTCCTAATCTTTCTGTTCAAGCGCCATCTAC | 0.875 |
| GATGATTGTTCTCCCAGCTGATGAATTTATGGACTCGAGTAAACAAATTTTCCTAATCTTTCTGTTCAAGCGCCATCTAC | 1.33 |
| GATGATTGTTCTCCCAGCTGATGAATTATGGACCTCGAGTAAACAAATTTTCCTAATCTTTCTGTTCAAGCGCCATCTAC | 0.362 |
| GATGATTGTTCTCCCAGCTGATGAATTAAGGGTTTCGAGTAAACAAATTTTCCTAATCTTTCTGTTCAAGCGCCATCTAC | 0.601 |
| GATGATTGTTCTCCCAGCTGATGAATTGTCACCGTCGAGTAAACAAATTTTCCTAATCTTTCTGTTCAAGCGCCATCTAC | 0.44 |
| GATGATTGTTCTCCCAGCTGATGAATTCGGAAAGTCGAGTAAACAAATTTTCCTAATCTTTCTGTTCAAGCGCCATCTAC | 0.224 |
| GATGATTGTTCTCCCAGCTGATGAATTTGTATGCTCGAGTAAACAAATTTTCCTAATCTTTCTGTTCAAGCGCCATCTAC | 6.51 |
| GATGATTGTTCTCCCAGCTGATGAATTGTACTCATCGAGTAAACAAATTTTCCTAATCTTTCTGTTCAAGCGCCATCTAC | 0.655 |
| GATGATTGTTCTCCCAGCTGATGAATTGCGGTTCTCGAGTAAACAAATTTTCCTAATCTTTCTGTTCAAGCGCCATCTAC | 1.25 |
| GATGATTGTTCTCCCAGCTGATGAATTCAGCAGCTCGAGTAAACAAATTTTCCTAATCTTTCTGTTCAAGCGCCATCTAC | 0.994 |
| GATGATTGTTCTCCCAGCTGATGAATTACTAGTATCGAGTAAACAAATTTTCCTAATCTTTCTGTTCAAGCGCCATCTAC | 0.613 |
